Values of other authors in patent US20240189292A1 (priority 2021, published 2024).

Details: in vivo; cited from earlier work

CC(C)n1c(=O)cc(N[C@@H](C)c2ccccc2)[nH]c1=O [MYK-461]
Elimination from the body (in words): slow
